Results reported in publication PMC8719881.
Read-outs that look alike come from different tables or passages of the source. No constants are given. Whether binding was seen depends on the method and setting. Binding seen in cells or lysates may run through a third protein. Some results given as binding are weak or reduced against the parent protein; the word gives no strength. For some of these results: Where a sequence is shown, tags or fusion partners need not be part of it.

Sequences of proteins named here, by UniProt entry; tags and fusion partners are left off. Residues count along the entry.
UniProt O14949: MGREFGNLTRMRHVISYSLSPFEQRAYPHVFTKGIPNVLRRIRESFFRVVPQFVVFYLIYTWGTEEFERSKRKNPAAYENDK
UniProt P47985, residues 79-274: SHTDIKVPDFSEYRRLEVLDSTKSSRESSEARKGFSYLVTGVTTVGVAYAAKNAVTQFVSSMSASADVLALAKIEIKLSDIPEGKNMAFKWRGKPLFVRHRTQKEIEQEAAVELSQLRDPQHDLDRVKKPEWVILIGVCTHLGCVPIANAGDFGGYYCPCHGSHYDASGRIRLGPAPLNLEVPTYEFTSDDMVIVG
UniProt Q9Y4W6, residues 67-797: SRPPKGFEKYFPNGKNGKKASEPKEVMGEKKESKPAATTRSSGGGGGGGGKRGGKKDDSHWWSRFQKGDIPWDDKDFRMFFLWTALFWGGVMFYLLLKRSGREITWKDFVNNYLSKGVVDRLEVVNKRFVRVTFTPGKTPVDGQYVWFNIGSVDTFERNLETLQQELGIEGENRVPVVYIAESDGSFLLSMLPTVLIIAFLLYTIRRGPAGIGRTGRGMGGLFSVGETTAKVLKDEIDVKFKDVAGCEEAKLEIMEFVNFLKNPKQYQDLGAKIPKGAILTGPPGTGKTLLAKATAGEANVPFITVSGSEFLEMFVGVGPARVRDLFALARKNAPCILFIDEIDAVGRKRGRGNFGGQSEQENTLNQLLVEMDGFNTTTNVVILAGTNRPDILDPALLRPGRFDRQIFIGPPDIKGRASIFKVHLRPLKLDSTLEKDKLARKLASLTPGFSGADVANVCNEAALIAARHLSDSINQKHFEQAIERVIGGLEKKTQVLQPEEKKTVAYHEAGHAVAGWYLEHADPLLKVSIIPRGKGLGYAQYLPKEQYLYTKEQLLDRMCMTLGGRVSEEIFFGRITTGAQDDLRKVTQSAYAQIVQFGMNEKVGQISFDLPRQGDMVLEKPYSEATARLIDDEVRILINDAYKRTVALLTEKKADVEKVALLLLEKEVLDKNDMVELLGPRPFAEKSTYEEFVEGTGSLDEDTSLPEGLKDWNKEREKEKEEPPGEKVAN
UniProt P00156: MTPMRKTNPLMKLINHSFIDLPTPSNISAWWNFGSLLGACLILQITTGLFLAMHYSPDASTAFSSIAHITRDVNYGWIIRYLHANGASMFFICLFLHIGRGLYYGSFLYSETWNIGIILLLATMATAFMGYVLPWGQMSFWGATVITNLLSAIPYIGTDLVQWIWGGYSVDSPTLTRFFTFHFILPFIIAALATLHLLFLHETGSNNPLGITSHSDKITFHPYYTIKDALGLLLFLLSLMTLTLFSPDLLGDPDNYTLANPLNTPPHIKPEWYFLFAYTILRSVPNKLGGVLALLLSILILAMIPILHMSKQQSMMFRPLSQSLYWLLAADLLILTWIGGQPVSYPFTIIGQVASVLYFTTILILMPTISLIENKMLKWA

Tests used:
[1] = molecular target: T1, UQCC3^FLAG (human) (UniProt Q6UW78); test: co-IP; anti-FLAG M2 agarose; mitochondria lysed in 1% digitonin, 150 mM NaCl, 20 mM MgCl2, 50 mM Tris-HCl pH 7.4, 4°C; 10 washes with 0.3% digitonin; FLAG peptide elution; western blot; wild-type mitochondria as control
T1 sequence: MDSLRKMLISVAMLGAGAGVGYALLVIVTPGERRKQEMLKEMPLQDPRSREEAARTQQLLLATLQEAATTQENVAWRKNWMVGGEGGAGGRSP

[2] = molecular target: T2, UQCC2^FLAG (human) (UniProt Q9BRT2); test: as above
T2 sequence: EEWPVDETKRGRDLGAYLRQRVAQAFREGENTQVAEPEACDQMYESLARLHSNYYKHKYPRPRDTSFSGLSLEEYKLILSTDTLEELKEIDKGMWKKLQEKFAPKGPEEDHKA

[3] = molecular target: C12ORF73^FLAG (human) (UniProt Q69YU5); test: as above
[4] = molecular target: T3, UQCC1^FLAG (human) (UniProt Q9NVA1); test: as above
T3 sequence: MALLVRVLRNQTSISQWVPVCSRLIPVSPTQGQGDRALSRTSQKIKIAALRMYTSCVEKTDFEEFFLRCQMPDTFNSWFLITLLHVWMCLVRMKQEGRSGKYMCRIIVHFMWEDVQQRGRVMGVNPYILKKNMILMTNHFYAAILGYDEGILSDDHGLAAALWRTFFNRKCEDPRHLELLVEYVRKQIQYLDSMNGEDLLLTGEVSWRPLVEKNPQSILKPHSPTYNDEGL

[5] = molecular target: T4, SMIM4^FLAG (human) (UniProt Q8WVI0); test: as above
T4 sequence: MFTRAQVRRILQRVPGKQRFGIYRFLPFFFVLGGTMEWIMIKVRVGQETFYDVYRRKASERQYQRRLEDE

[6] = molecular target: T5, SMIM4 (human (endogenous in HEK293T)) (UniProt Q8WVI0); test: co-IP; anti-SMIM4 or anti-C12ORF73 antibody cross-linked to protein A-Sepharose, control IgG; cellular extracts after 1 hr [35S]methionine labelling of mitochondrial translation products (emetine); elution with 0.1 M glycine pH 2.8; digital autoradiography and immunodetection
T5 sequence: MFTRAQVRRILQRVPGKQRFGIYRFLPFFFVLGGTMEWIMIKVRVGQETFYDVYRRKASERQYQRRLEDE

[7] = molecular target: C12ORF73 (human (endogenous in HEK293T)) (UniProt Q69YU5); test: as above
[8] = molecular target: T3, UQCC1^FLAG (human); test: co-IP + native gel or EMSA; anti-FLAG immunoisolation from solubilised mitochondria, natively eluted complexes separated by BN-PAGE and second dimension SDS-PAGE, western blot; for UQCC1^FLAG from control and C12ORF73-depleted (siRNA) cells
[9] = molecular target: UQCRQ^FLAG (UniProt O14949); test: co-IP; anti-FLAG M2 agarose; mitochondria lysed in 1% digitonin, 150 mM NaCl, 20 mM MgCl2, 50 mM Tris-HCl pH 7.4, 4°C; 10 washes with 0.3% digitonin; FLAG peptide elution; western blot; wild-type mitochondria as control
[10] = molecular target: RIESKE (human (endogenous in HEK293T)) (UniProt P47985); test: co-IP; immunoisolation with anti-RIESKE antibody from purified mitochondria solubilised in digitonin-containing buffer; western blot
[11] = molecular target: T6, MITRAC7^FLAG (human) (UniProt Q8N5G0); test: co-IP; anti-FLAG M2 agarose; mitochondria lysed in 1% digitonin, 150 mM NaCl, 20 mM MgCl2, 50 mM Tris-HCl pH 7.4, 4°C; 10 washes with 0.3% digitonin; FLAG peptide elution; western blot; wild-type mitochondria as control
T6 sequence: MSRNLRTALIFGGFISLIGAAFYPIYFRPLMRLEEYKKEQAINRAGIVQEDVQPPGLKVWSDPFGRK

[12] = molecular target: T7, C12ORF62^FLAG (human) (UniProt Q96I36); test: as above
T7 sequence: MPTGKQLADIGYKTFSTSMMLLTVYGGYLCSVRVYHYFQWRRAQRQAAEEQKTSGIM

[13] = molecular target: T8, MITRAC12^FLAG (human) (UniProt Q9Y2R0); test: as above
T8 sequence: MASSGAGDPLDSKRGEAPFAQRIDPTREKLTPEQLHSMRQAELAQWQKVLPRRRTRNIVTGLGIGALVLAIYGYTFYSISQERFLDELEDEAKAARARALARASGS

[14] = molecular target: T9, CMC1^FLAG (UniProt Q7Z7K0); test: as above
T9 sequence: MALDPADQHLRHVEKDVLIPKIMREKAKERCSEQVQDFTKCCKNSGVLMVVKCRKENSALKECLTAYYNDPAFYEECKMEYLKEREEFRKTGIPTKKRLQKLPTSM

[15] = molecular target: C12ORF73^FLAG (human) (UniProt Q69YU5); test: as above; remark: listed apart in the source
[16] = molecular target: T4, SMIM4^FLAG (human); test: as above; remark: listed apart in the source
[17] = molecular target: UQCRQ^FLAG (UniProt O14949); test: as above; remark: listed apart in the source
[18] = molecular target: C12ORF73^FLAG (human) (UniProt Q69YU5); test: co-IP + native gel or EMSA; anti-FLAG immunoisolation from solubilised mitochondria, natively eluted complexes separated by BN-PAGE and second dimension SDS-PAGE, western blot; for UQCC1^FLAG from control and C12ORF73-depleted (siRNA) cells
[19] = molecular target: T3, UQCC1^FLAG (human); test: as above; remark: listed apart in the source
[20] = molecular target: T2, UQCC2^FLAG (human); test: co-IP; anti-FLAG M2 agarose; mitochondria lysed in 1% digitonin, 150 mM NaCl, 20 mM MgCl2, 50 mM Tris-HCl pH 7.4, 4°C; 10 washes with 0.3% digitonin; FLAG peptide elution; western blot; wild-type mitochondria as control; remark: listed apart in the source
[21] = molecular target: T3, UQCC1^FLAG (human); test: as above; remark: listed apart in the source

For RIESKE (from UniProt P47985 79-274), the binding [1] was “binds”, the binding [2] was “no binding” and the binding [3] was “no binding”. The binding [4] was “no binding”.

For AFG3L2 (from UniProt Q9Y4W6 67-797), the binding [5] was “binds”.

In the case of “cytochrome b (CYTB) (from UniProt P00156 1-380)”, the binding [6] is reported as “binds”, the binding [7] is reported as “binds” and the binding [8] is reported as “binds”.

C12ORF73 (from UniProt Q69YU5 1-71) was tested, and the binding [2] was “binds”, the binding [5] was “binds” and the binding [9] was “binds weakly”. For the same molecule, the binding [4] was “binds” and the binding [10] was “no binding”.

B1: TMEM223 (protein, UniProt A0PJW6 1-202)
chain: MAAPWRRWPTGLLAVLRPLLTCRPLQGTTLQRDVLLFEHDRGRFFTILGLFCAGQGVFWASMAVAAVSRPPVPVQPLDAEVPNRGPFDLRSALWRYGLAVGCGAIGALVLGAGLLFSLRSVRSVVLRAGGQQVTLTTHAPFGLGAHFTVPLKQVSCMAHRGEVPAMLPLKVKGRRFYFLLDKTGHFPNTKLFDNTVGAYRSL
With B1 the binding [11] was “binds weakly”, the binding [12] was “binds” and the binding [13] was “binds”. The binding [14] was “no binding”.

B2: UQCC1 (protein, UniProt Q9NVA1 1-299)
chain: MALLVRVLRNQTSISQWVPVCSRLIPVSPTQGQGDRALSRTSQWPQMSQSRACGGSEQIPGIDIQLNRKYHTTRKLSTTKDSPQPVEEKVGAFTKIIEAMGFTGPLKYSKWKIKIAALRMYTSCVEKTDFEEFFLRCQMPDTFNSWFLITLLHVWMCLVRMKQEGRSGKYMCRIIVHFMWEDVQQRGRVMGVNPYILKKNMILMTNHFYAAILGYDEGILSDDHGLAAALWRTFFNRKCEDPRHLELLVEYVRKQIQYLDSMNGEDLLLTGEVSWRPLVEKNPQSILKPHSPTYNDEGL
For B2, the binding [15] was “binds”, the binding [16] was “binds” and the binding [17] was “binds weakly”. The binding [10] was “no binding” and the binding [18] was “binds”.

B3: UQCC2 (protein, UniProt Q9BRT2 14-126)
chain: EEWPVDETKRGRDLGAYLRQRVAQAFREGENTQVAEPEACDQMYESLARLHSNYYKHKYPRPRDTSFSGLSLEEYKLILSTDTLEELKEIDKGMWKKLQEKFAPKGPEEDHKA
B3 was tested, and the binding [15] was “binds”, the binding [18] was “binds” and the binding [19] was “binds”.

B4: SMIM4 (protein, UniProt Q8WVI0 1-70)
chain: MFTRAQVRRILQRVPGKQRFGIYRFLPFFFVLGGTMEWIMIKVRVGQETFYDVYRRKASERQYQRRLEDE
B4 was tested, and the binding [20] was “binds”, the binding [17] was “binds” and the binding [21] was “binds”. The binding [10] was “no binding” and the binding [18] was “binds”.

B5: UQCC3 (protein, UniProt Q6UW78 1-93)
chain: MDSLRKMLISVAMLGAGAGVGYALLVIVTPGERRKQEMLKEMPLQDPRSREEAARTQQLLLATLQEAATTQENVAWRKNWMVGGEGGAGGRSP
B5 was tested, and the binding [10] was “binds”.
